These results are taken from PubChem BioAssay AID1346428 (National Center for Advancing Translational Sciences (NCATS), 2018).

The structures appear in SMILES notation. Several values for one entry are separate records, joined by “and”; a condition that tells them apart may be missing. Equal entries are not always repeated. In all, about 48,000 compounds went through this assay and about 1,200 (2.5%) were called active. About 2% were inconclusive and are not listed.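 How the source made its calls: active means activation of at least 60% and not above a set upper limit (about 1 call in 100 departs from these limits); inconclusive means activation of 40% to 60%, or above that upper limit; inactive means activation under 40%.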 This is one part of the list.

The target of this assay is Probable G-protein coupled receptor 32 (Homo sapiens) (UniProt O75388). In words: qHTS for Agonists of Human Resolvin D1 Receptor DRV1. Further: 0% is about no effect. The conditions noted are these: CHO-K1 GPR32 beta-arrestin PathHunter luminescence, 90 min; at 76.9 µM; hits give high values; zero percent set by DMSO-only wells. A digest of the protocol: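 Agonism was scored by beta-Gal fragment complementation (chemiluminescent read, 1 h detection at ambient temperature) reporting beta-arrestin binding to GPR32 in engineered CHO-K1 cells. Compound treatment lasted 90 min at 37 C, normalized to a DMSO basal control.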
Sequence of UniProt O75388 (O75388 whole entry, looked up, the tested form may be a part): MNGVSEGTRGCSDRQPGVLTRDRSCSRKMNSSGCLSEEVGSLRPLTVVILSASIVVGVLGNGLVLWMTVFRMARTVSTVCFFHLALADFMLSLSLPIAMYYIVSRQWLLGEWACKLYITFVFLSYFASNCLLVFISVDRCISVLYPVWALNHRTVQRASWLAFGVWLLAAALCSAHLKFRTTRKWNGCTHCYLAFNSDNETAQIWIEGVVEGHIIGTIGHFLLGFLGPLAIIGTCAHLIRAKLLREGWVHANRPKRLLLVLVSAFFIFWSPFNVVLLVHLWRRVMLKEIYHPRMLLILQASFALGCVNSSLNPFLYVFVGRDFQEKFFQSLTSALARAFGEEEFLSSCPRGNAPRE
For orientation: qHTS replaces the single test concentration by a dilution series.
As to `Cc1ccc(CNCc2c(C(=O)O)n(Cc3ccccc3C)c3cc(C)ccc23)cc1`, the activation was inactive: -0.051%.

With `CCCCNC(=O)c1[nH]c2ccccc2c1Sc1ccc(C)cc1`, the activation is inactive: -7.6%. As to `O=C(Nc1c(C(=O)c2ccccc2)oc2ccccc12)c1ccc(F)cc1`, the activation was inactive: 25.9%.

Take `CCOc1ccc(C(=O)Nc2ccc3oc(-c4cccc5ccccc45)nc3c2)cc1`: the activation is inactive: -7.18%. In the case of `O=C1CN(C(=O)c2ccc(S(=O)(=O)N3CCCC3)cc2)C(c2ccccc2)c2cc(Cl)ccc2N1` (centres undefined) it was inactive: -29%. On to `O=C(CN1CCN(Cc2ccc(F)cc2Cl)C1=O)NCCc1ccc(Cl)cc1`, for which the activation was inactive: 43.7%. The same measure for `CC(C)c1nc2ccc(C(=O)NCCCN3CCN(c4ccccc4)CC3)cc2o1`: inactive: -5.81%; for `Cc1ccc(O)c(Nc2nc3ccccc3c3nncn23)c1`: inactive: 21.3%. Turning to `COc1cccc(C(=O)Nc2ccc3nc4n(c(=O)c3c2)CCCCC4)c1`, the activation is inactive: 1.21%.

`Cc1cc(C)n(CC(=O)Nc2cc(F)ccc2F)c(=O)c1C#N`: the activation was inactive: -4.15%. In the case of `COc1ccc(OC)c(NC(=O)N2CC(C)Oc3ccc(C)cc32)c1` (centres undefined) it was inactive: -31.1%. In the case of `Cc1ccc(C(=O)c2cn(CC(=O)NCc3ccccc3)c3nc(C)ccc3c2=O)cc1` it was inactive: 8.69%; in that of `CCOc1ccc(-c2nc(C(N)=O)c3c(n2)n(-c2ccc4c(c2)OCO4)c(=O)n3CC)cc1`, inactive: 5.48%; in that of `O=S(=O)(NCC(c1ccco1)N1CCOCC1)c1ccc(F)cc1` (centres undefined), inactive: -0.788%. The same measure for `Cc1cc(C)c2oc(C(=O)Nc3c(C(=O)c4ccccc4)oc4ccccc34)cc(=O)c2c1`: inactive: 14.7%; for `Cc1ccc(CNC(=O)Cn2cc3c(n2)-c2c(oc(C(=O)N4CCOCC4)c2C)CC3)cc1`: inactive: 8.98%. In the case of `CC1=C(C(N)=O)C(c2ccccc2F)n2nc(-c3ccc(Cl)cc3)nc2N1` (centres undefined), the activation is inactive: 5.41%. In the case of `COC(=O)c1cc(S(=O)(=O)N2CCN(c3cc(Cl)ccc3C)CC2)c[nH]1` it was inactive: 13.7%; in that of `Cc1ccc(C(=O)NCCC(C)C)cc1NC(=O)c1nsc2ccccc12`, inactive: -15.7%; in that of `COc1cc2c(=O)c(C(=O)c3ccc(F)cc3)cn(Cc3cccc(F)c3)c2cc1OC`, inactive: 10.3%. The same measure for `CCN(CC)c1ccc(NC(=O)Cn2c3ncccc3c(=O)n2-c2ccccc2)c(C)c1`: inactive: -13.8%; for `COc1ccccc1CNc1ncnc2c1c(-c1ccccc1)cn2-c1ccc(Br)cc1`: inactive: -28.7%; for `CCc1ccc(CNC(=O)c2cnc(N3CCCCC3)c3ccccc23)cc1`: inactive: -13.9%. `CC12CC3CC(C)(C1)CC(N)(C3)C2`: the activation is inactive: -4.38% and inactive: -12.3%. The same measure for `COc1ccc(CCNC(=O)C(=O)Nc2ccc(C)c(C)c2)cc1`: inactive: -1.19%; for `CC(C)c1ccc(S(=O)(=O)c2cn(CC(=O)Nc3ccc(F)cc3)c3ccccc3c2=O)cc1`: inactive: -5.15%; for `O=C(CSc1nc2c(c(=O)[nH]1)CCCC2)Nc1ccccc1C(F)(F)F`: inactive: -7.79%.

`O=C(CN1C(=O)CC(c2ccco2)Sc2ccccc21)Nc1cccc(C(F)(F)F)c1` (centres undefined): the activation is inactive: 11.5%. In the case of `CC1CCN(S(=O)(=O)c2cc(C(=O)NCc3ccc(N(C)C)cc3)n(C)c2)CC1` it was inactive: 11.7%. The same measure for `Cc1ccccc1CN1c2ccccc2-c2nc(SCC(=O)c3ccc(Cl)cc3)ncc2S1(=O)=O`: inactive: -16%. In the case of `Cc1csc2nc(-c3cccc(NS(C)(=O)=O)c3)cn12`, the activation is inactive: 19.7%. In the case of `COCCCNC(=O)CCCN1C(=O)CCn2nc(-c3cccn3C)cc21` it was inactive: -8.59%; in that of `CCOc1ccc(NC(=O)Cn2c(=O)cc(C)c3c(C)nn(C)c32)cc1`, inactive: 18.4%.

Consider `CCc1ccccc1NC(=O)Cn1c(=O)n(Cc2ccccc2)c(=O)c2c(C)c(C(=O)N(C)C)sc21`, for which the activation is inactive: -14.1%. On to `Cc1csc2nc(-c3ccc(NS(=O)(=O)c4cccc(F)c4)cc3)cn12`, for which the activation was inactive: -0.302%.

In the case of `Cc1ccc(-c2nc(C)c(CCNC(=O)C(=O)Nc3cc(C)ccc3C)s2)cc1`, the activation was inactive: -7.54%. Take `Cc1oc2ccc(NS(=O)(=O)c3ccc(F)cc3)cc2c1C(=O)O`: the activation was inactive: 2.63%. The same measure for `CCCOc1ccc(C2=NC(c3ccncc3)=Nc3ccc(C)cc3N2)cc1`: inactive: -4.37%; for `Cc1ccccc1CNC(=O)c1ccc(NC(=O)N2CCCCc3ccccc32)cc1`: inactive: -7.72%.

With `Cc1ccccc1-c1noc(-c2ccc(N3CCC(C)CC3)c([N+](=O)[O-])c2)n1`, the activation was inactive: -5.9%.

With `Cc1ccc(S(=O)(=O)c2c(Nc3ccc(C)c(C)c3)sc(C(=O)c3ccc4c(c3)OCO4)c2N)cc1`, the activation was inactive: -20.1%.

For the molecule `CSc1ncc(Cl)c(C(=O)Nc2c(C(=O)Nc3cccc(C)c3)oc3ccccc23)n1`, the activation was inactive: 2.21%. Take `COc1cc(CSc2ncc(CO)n2Cc2ccc(C)cc2)cc(OC)c1`: the activation is inactive: 17.7%.

As to `COc1ccc(CNC(=O)CCCN2C(=O)CCn3nc(-c4cn(C)c5ccccc45)cc32)cc1`, the activation was inactive: 0.409%. The same measure for `Cc1c(Cl)cccc1NC(=O)CSc1nc(=O)[nH]c2c1CCCC2`: inactive: -1.57%; for `O=C(NCCc1ccc(Cl)cc1)C1(c2cccs2)CCOCC1`: inactive: 35.6%. In the case of `Cc1ccc(-n2c(=O)c3cccnc3n2CC(=O)Nc2ccc(C)cc2Cl)cc1` it was inactive: -3.88%; in that of `COc1ccc(OC)c(NC(=O)Cn2ncc3c2-c2ccccc2OC3)c1`, inactive: 10.6%; in that of `O=C(NCCC1=CCCCC1)C1CCN(C(=O)N2CCOc3ccccc32)CC1`, inactive: -0.475%. The same measure for `O=C1CN(C(=O)c2ccc(S(=O)(=O)N3CCCCC3)cc2)C(c2ccc(F)cc2)c2cc(Cl)ccc2N1` (centres undefined): inactive: -20%; for `Cc1cccc(-c2nc(CS(=O)CC(=O)NCc3ccc(Cl)cc3)c(C)o2)c1` (centres undefined): inactive: -0.277%. As to `O=C(NCCc1ccccc1)c1ccc(CSc2nc3cccnc3n2Cc2ccccc2F)cc1`, the activation was inactive: -49.3%. In the case of `COc1ccc(C2=C(C)C(=O)N(Cc3ccc(C(=O)Nc4ccc(F)cc4C)cc3)S2(=O)=O)cc1` it was inactive: -13.4%; in that of `CCN(CC)CCn1c(=N)n(CCOc2ccccc2Cl)c2ccccc21`, inactive: -10.7%.

Turning to `CCOC(=O)c1cc(-c2ccccc2)n(CC(=O)NCc2ccc(C)cc2)c1C`, the activation is inactive: -10.7%. In the case of `COc1cccc(-c2cn3c(n2)sc2cc(C(=O)NCc4ccccc4F)ccc23)c1` it was inactive: -18%. The same measure for `CCOC(=O)C(=O)CCc1ccccc1`: inactive: 0.467%. `COc1ccc(-c2[nH]ncc2C(=O)NCc2cccc(Cl)c2)cc1`: the activation was inactive: -7.45%. The same measure for `O=C(NCC(c1cccnc1)N1CCOCC1)C(=O)Nc1ccc(Cl)cc1` (centres undefined): inactive: 5.25%; for `CCOC(=O)c1c(C)oc2nc(C)nc(NCC3CCN(Cc4ccccc4C)CC3)c12`: inactive: -4.7%; for `Cc1ccc2nc(-c3cccc(NC(=O)c4cccc5c(Cl)cccc45)c3)oc2c1`: inactive: 11.5%. In the case of `Cc1ccc2c(c1)-c1c(cnn1CC(=O)N1CCN(c3cc(C)ccc3C)CC1)CO2` it was inactive: -21.9%; in that of `Cc1ccccc1S(=O)(=O)Cc1ccc(C(=O)NCCc2ccccc2)o1`, inactive: -1.74%; in that of `CN(CCCNC(=O)Cn1ncc2c([nH]c3ccccc32)c1=O)Cc1ccccc1`, inactive: -17.8%.

Take `Cc1ccccc1CNC(=O)C(=O)NCC(c1ccc2c(c1)OCO2)N1CCOCC1` (centres undefined): the activation is inactive: -10.6%. In the case of `CC1CCN(c2csc3ccc(F)cc3c2=O)CC1` it was inactive: 4.17%; in that of `CC(C)N1CCc2c(sc(NC(=O)c3ccc(S(=O)(=O)N(C)C4CCCCC4)cc3)c2C(N)=O)C1`, inactive: -50.2%; in that of `O=C(NCc1ccc(Cl)cc1)c1ccc(CNS(=O)(=O)c2ccc(F)cc2)cc1`, inactive: 7.49%.

For `COCCc1nn2c(=O)cc(COC(=O)c3ccco3)nc2s1`, the activation was inactive: 33%. In the case of `CC(=O)c1ccc(NC(=O)c2cc(S(=O)(=O)N3CCOCC3)ccc2C)cc1` it was inactive: 12.1%. In the case of `CCC(Sc1nc2cc(OC)c(OC)cc2c(=O)n1Cc1ccc(OC)cc1)C(=O)NCCOC` (centres undefined) it was inactive: -15.4%; in that of `Cc1cc(N2CCN(c3ccccc3)CC2)n2cnnc2n1`, inactive: 7.53%. The same measure for `CCN1CCN(C(=O)c2ccc3c(c2)N(Cc2ccccc2)C(=O)c2ccccc2S3(=O)=O)CC1`: inactive: -28.3%. Regarding `CCCN1CCN(CCCNC(=O)c2ccc3c(c2)sc2nc(-c4ccc(OCC)cc4)cn23)CC1`, the activation is inactive: -0.789%. The same measure for `CCOc1ccc(-c2cn3c(n2)sc2cc(C(=O)N4CCCC(C)C4)ccc23)cc1` (centres undefined): inactive: -2.63%; for `Cc1nc(-c2ccc(F)cc2)sc1CCNC(=O)c1ccc(OC(C)C)cc1`: inactive: -10.3%; for `COc1ccccc1CNC(=O)C1CCN(C2=NS(=O)(=O)C(c3ccc(C)c(C)c3)=C2C)CC1`: inactive: -4.38%. The same measure for `Cc1cc(C)cc(OCC(=O)N(Cc2ccc(Cl)cc2)C2CCS(=O)(=O)C2)c1` (centres undefined): inactive: -18.2%.

Take `Cc1nc(N2CCOCC2)c2c(C(=O)N(C)c3ccccc3)c(C)oc2n1`: the activation was inactive: -6%. The same measure for `CC(C)Cc1nn2c(=O)cc(COC(=O)c3cccc(NS(C)(=O)=O)c3)nc2s1`: inactive: -10.5%. In the case of `O=C(CCCCCn1c(=O)[nH]c2ccccc2c1=O)N1CCN(c2ccc(Cl)cc2)CC1` it was inactive: -11.8%.

Take `O=C(CSc1nc2c([nH]c3ccccc32)c(=O)n1-c1cccc(Cl)c1)NCc1ccccc1`: the activation was inactive: -3.54%. On to `COc1cc2c(cc1OC)C(COc1cc(C)cc(C)c1)N(C(=O)c1ccc(S(=O)(=O)N3CCCC3)cc1)CC2` (centres undefined), for which the activation is inactive: -8.85%. In the case of `COC(=O)c1ccc(CNC(=O)c2nc(Cn3nc(C)c(Br)c3C)no2)cc1` it was inactive: 9.83%.
